Measured values as given in the supplement of paper PMC6531468.
The other results are listed elsewhere or left out. These are enrichments in a pooled selection; single values are uncertain. Each score is taken over the longer molecules that contain the sequence shown.

Experiments:
Assay in all cases: 6-mer SELEX enrichment z-score vs GST control; IMP3 is the RNA-binding protein IGF2BP3; higher = more enriched by binding
[1] = system: IMP3 KH1-4; conditions: construct: KH1-4 (164-579); SELEX round: R4
Sequence of IMP3 KH1-4 (chain, as listed by the source): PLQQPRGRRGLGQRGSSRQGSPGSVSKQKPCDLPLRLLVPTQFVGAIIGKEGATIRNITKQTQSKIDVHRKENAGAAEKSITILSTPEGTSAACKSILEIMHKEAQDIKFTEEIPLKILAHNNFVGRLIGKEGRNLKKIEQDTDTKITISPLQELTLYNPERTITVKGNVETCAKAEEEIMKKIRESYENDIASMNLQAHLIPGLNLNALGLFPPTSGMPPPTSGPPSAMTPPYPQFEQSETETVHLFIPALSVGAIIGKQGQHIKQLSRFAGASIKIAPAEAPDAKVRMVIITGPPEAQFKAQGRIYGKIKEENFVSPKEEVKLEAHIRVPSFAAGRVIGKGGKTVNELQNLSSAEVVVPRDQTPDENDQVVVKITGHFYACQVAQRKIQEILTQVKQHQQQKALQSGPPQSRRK
Experimental: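 SELEX-seq with GST-tagged IMP3 KH1-4 (Pro164-Lys579) and an N40 RNA pool, round 4. 6-mer z-score of sequence-tag enrichment normalised to the corresponding GST SELEX round; RNA k-mers written as DNA (T for U).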

[2] = system: IMP3 RRM1-2; conditions: construct: RRM1-2 (1-163); SELEX round: R2
Sequence of IMP3 RRM1-2 (chain, as listed by the source): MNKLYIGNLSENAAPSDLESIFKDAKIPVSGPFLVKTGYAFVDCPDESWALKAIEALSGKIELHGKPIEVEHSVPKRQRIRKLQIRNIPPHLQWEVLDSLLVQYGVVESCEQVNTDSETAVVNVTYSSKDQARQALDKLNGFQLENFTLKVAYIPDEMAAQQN
Experimental: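 SELEX-seq with GST-tagged IMP3 RRM1-2 (Met1-Asn163) and an N40 RNA pool, round 2. 6-mer enrichment z-score normalised to GST SELEX. RNA written as DNA (T = U).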

[3] = biological target: IMP3 full-length (UniProt O00425); conditions: construct: FL IMP3 (1-579); SELEX round: R4
Sequence of UniProt O00425 (O00425 whole entry): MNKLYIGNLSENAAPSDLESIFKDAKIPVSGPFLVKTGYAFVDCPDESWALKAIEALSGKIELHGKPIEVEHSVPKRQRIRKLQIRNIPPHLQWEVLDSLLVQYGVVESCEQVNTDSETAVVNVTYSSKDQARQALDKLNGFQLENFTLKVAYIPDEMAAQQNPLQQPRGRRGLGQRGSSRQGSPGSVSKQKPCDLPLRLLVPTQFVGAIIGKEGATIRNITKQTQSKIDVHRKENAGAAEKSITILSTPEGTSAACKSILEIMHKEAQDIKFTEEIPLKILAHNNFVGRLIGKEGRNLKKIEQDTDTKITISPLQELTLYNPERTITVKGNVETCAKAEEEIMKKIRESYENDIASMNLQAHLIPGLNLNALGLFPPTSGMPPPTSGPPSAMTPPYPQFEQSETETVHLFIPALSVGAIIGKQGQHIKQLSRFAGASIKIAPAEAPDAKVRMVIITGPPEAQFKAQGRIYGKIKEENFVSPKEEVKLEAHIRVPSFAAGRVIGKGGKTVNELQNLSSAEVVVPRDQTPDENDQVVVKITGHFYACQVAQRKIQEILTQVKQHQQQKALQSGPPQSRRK
Experimental: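 SELEX-seq with GST-tagged full-length IMP3 and an N40 RNA pool, round 4. Each 6-mer is scored as an enrichment z-score of sequence tags containing it, normalised to the matching GST SELEX round. RNA written as DNA (T = U).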

[4] = system: IMP3 KH1-2; conditions: construct: KH1-2 (164-376); SELEX round: R4
Sequence of IMP3 KH1-2 (chain, as listed by the source): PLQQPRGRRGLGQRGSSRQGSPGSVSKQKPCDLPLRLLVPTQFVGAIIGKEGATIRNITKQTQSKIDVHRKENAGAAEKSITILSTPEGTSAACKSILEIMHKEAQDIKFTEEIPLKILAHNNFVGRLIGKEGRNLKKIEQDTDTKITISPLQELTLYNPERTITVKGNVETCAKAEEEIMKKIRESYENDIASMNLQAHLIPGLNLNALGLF
Experimental: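 SELEX-seq with GST-tagged IMP3 KH1-2 (Pro164-Phe376) and an N40 RNA pool, round 4 (stringent 300/600 mM KCl washes). 6-mer z-score of sequence-tag enrichment normalised to the corresponding GST SELEX round; RNA k-mers written as DNA (T for U).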

[5] = system: IMP3 KH3-4; conditions: construct: KH3-4 (377-579); SELEX round: R4
Sequence of IMP3 KH3-4 (chain, as listed by the source): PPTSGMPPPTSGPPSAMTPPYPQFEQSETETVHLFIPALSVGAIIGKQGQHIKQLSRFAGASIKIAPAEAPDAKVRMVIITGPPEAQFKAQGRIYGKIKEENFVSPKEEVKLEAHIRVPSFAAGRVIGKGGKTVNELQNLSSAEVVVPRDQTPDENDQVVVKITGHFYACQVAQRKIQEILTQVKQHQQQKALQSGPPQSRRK
Experimental: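 SELEX-seq with GST-tagged IMP3 KH3-4 (Pro377-Lys579) and an N40 RNA pool, round 4. 6-mer z-score of sequence-tag enrichment normalised to the corresponding GST SELEX round; RNA k-mers written as DNA (T for U).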

Sequence | 6-mer SELEX enrichment z-score [1] | 6-mer SELEX enrichment z-score [2] | 6-mer SELEX enrichment z-score [3] | 6-mer SELEX enrichment z-score [4] | 6-mer SELEX enrichment z-score [5]
GGCCAT | 0.989 | 0.375 | 1.1 | 0.694 | 1.05
TCCGTC | 0.159 | 0.285 | 0.508 | 0.207 | -0.173
GTGGGT | 0.091 | 0.42 | 0.226 | 0.258 | 0.314
ACGCTG | -0.02 | -0.369 | 0.024 | -0.007 | -0.215
AAGGCG | -0.509 | -0.007 | 0.125 | -0.472 | -0.148
CCAGTA | 0.076 | -0.132 | 0.059 | -0.061 | -0.094
TACCCT | -0.728 | -0.219 | -0.595 | -0.712 | -0.985
GACTTT | 0.246 | -0.115 | -0.258 | 0.191 | 0.391
AATCTA | 0.337 | -0.232 | -0.365 | 0.166 | 0.389
GCAGAG | 0.113 | 0.07 | 0.687 | 0.09 | 0.025
ACAAGA | 0.217 | -0.222 | -0.123 | 0.389 | 0.584
CGCCTC | -0.943 | -0.037 | -0.209 | -0.72 | -0.954
GAGGTA | -0.456 | -0.126 | -0.119 | -0.341 | -0.168
CCCTGA | -1.18 | -0.985 | -1.48 | -1.19 | -1.59
GTACCC | -0.876 | 0.256 | 0.033 | -0.834 | -0.95
TGCGTC | -0.369 | 0.569 | 0.445 | -0.19 | -0.104
TATTAC | 1.19 | 0.157 | 0.199 | 1.26 | 1.49
ATGGTT | 0.227 | 0.375 | 0.19 | 0.201 | 0.381
ACCTAT | -0.435 | -0.357 | -0.76 | -0.439 | -0.55
TAGCCA | -0.309 | -0.196 | -0.31 | -0.356 | -0.36
